Each structure is given as a SMILES string. Among all 48,000 compounds or so, about 120 (0.25%) were called active. Not shown: some 4% with an inconclusive outcome. The call rests on the fitted dose curve; in most records, active means well fitted activation curve with a large enough effect; inconclusive means small, poorly fitted or top-dose-only effect, or another doubt; inactive means no such curve, though single readings can be large or run the other way. Only a part is listed here, and it is no random draw. Entries without a call were filed so in the source.

This assay can be described thus: Primary qHTS for Identification of Small Molecule Activators of Huntingtin-Antisense Promoter Activity. Further: nearly all actives have a fitted effect of over 55% in size. As to conditions: HEK293 HTT-AS promoter firefly luciferase reporter, 24 h; activity change, positive = activation: at 57.5 µM (top of the series), percent change from vehicle, -100% = no light. The essentials:
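HEK293 Fluc reporter, 2,500 cells/well, 24 h pre-culture; cpds up to 57.5 uM final, 24 h 37 degrees C; Dual-Glo, 10 min RT; normalized vehicle = 0%, zero RLU = -100%.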
(In qHTS, concentration-response curves come from the screen itself.)
As to `COc1ccccc1CNC(=O)CC(c1ccc(F)cc1)N1Cc2ccccc2C1=O` (configuration not stated), the activity change, positive = activation is -18.3%.

On to `Cc1ccc(C2C(=O)N(C3CCC(C)CC3)CC(=O)N2C2CCCC2)cc1` (configuration not stated), for which the activity change, positive = activation was -13.1%.

As for `Cc1cc(NS(=O)(=O)c2ccc(NC(=O)COc3c(C)ccc(C)c3C)cc2)nc(C)n1`, the activity change, positive = activation was -14.1%.

For the compound `COc1ccc(CNC(=O)c2cc3c(=O)n(Cc4ccco4)ccc3nc2C)cc1`, the activity change, positive = activation was -12.9%.

Consider `O=C(C[C@@H]1CC=CCCC(=O)O[C@H](c2ccccc2)CNC1=O)NCc1ccc(Cl)cc1`, for which the “activity change, positive = activation” value is inactive: -17%.

Take `COc1ccc(CC(=O)Nc2sc3c(c2C(=O)Nc2ccccc2)CCCCC3)cc1`: the “activity change, positive = activation” value is inactive: -34.9%.

For `Clc1ccc(Nc2nnc(Cc3ccncc3)c3ccccc23)cc1`, the Potency entry was “inactive”.

With `CC1CCCc2sc3nc(SCC(=O)c4ccc(Br)cc4)nc(N)c3c21` (configuration not stated), the activity change, positive = activation is -12.9%.

On to `C#Cc1ccc(-c2ccccc2F)cc1`, for which the “activity change, positive = activation” value was inactive: -1.21%.

As for `CC(=O)N1CCc2c(sc(NC(=O)CSc3ccccc3)c2-c2nc3ccccc3s2)C1`, the “activity change, positive = activation” value was inactive: -27.9%.

`CCOc1ccc2nc(Cl)c(C3CC(c4ccc(OC)cc4)=NN3S(C)(=O)=O)cc2c1` (configuration not stated): the activity change, positive = activation is -13.8%.

Regarding `Cc1cc(F)ccc1NC(=O)CCS(=O)(=O)c1ccc2c(c1)CC(C)N2C(=O)C1CC1` (configuration not stated), the activity change, positive = activation is -12.3%.

On to `Cc1ccccc1NC(=O)CSc1nnc(COc2ccc(Cl)cc2)o1`, for which the activity change, positive = activation is -10.4%.

In the case of `Cc1ccc(O)c(NC(=O)c2noc3c2CCCC3)c1`, the activity change, positive = activation is 75.1%.

Take `Cc1c(Cl)cccc1NC(=O)CC(c1ccc(F)cc1)N1Cc2ccccc2C1=O` (configuration not stated): the activity change, positive = activation is -52.6%.

As to `O=C(NCCCc1nc2ccccc2n1Cc1ccccc1Cl)c1ccco1`, the activity change, positive = activation was -24%.

`NC(=O)c1ccc(NC(=O)C2CCN(S(=O)(=O)Cc3ccccc3)CC2)cc1`: the activity change, positive = activation turned out to be 4.43%.

Take `CCn1ccc2c(OCC(=O)NCc3ccccc3)cccc2c1=O`: the “activity change, positive = activation” value was inactive: -10.5%.

Regarding `COc1ccc(Cl)cc1S(=O)(=O)Nc1cccc(-c2ccc(N3CCCC3)nn2)c1`, the activity change, positive = activation came out at 2.91%.

For the compound `COc1ccc2c(c1)cc1c(=O)n(CC(=O)NCCCOC(C)C)nc(C)n12`, the activity change, positive = activation was -5.84%.

Take `CCOC(=O)c1ccc(N2CCN(c3cc(C)ccc3C)CC2)c(NC(=O)Nc2ccc(CC)cc2)c1`: the activity change, positive = activation is -2.37%.

In the case of `Cc1ccc(NC(=O)c2c(C(=O)Nc3ccccc3)sc3nc(C)cc(=O)n23)cc1`, the activity change, positive = activation is -9.27%.

`O=C(O)[C@H](CC(=O)N1C[C@@H]2CCCC[C@H]2C1)Cc1ccccc1`: the “activity change, positive = activation” value was inactive: -3.78%.

For `O=S(=O)(Nc1cccc(-c2ccc(N3CCCC3)nn2)c1)c1cc(F)ccc1F`, the activity change, positive = activation turned out to be 3.21%.

With `CCOC(=O)c1c(C)n(S(=O)(=O)c2ccc(C)cc2)c2ccc(NS(=O)(=O)c3ccc(C)cc3)cc12`, the activity change, positive = activation was -19.2%.

Regarding `Cc1ccccc1Nc1nnc(-c2ccc(C)c(S(=O)(=O)N3CCCCC3)c2)c2ccccc12`, the activity change, positive = activation is -32.2%.

On to `Cc1ccccc1C(=O)Nc1ccc2oc(-c3ccc(Cl)c(Cl)c3)nc2c1`, for which the activity change, positive = activation came out at 15.3%.

The values above are taken from PubChem BioAssay AID1508624 (National Center for Advancing Translational Sciences (NCATS), 2021).
